According to the antibiotic and cytotoxicity screens of Wong et al. (2023):
The other results are listed elsewhere or left out.

Assays:
HSkMC = human skeletal muscle cells; assay: cytotoxicity call (relative viability < 0.9); details: 10 µM
HepG2 = assay: cytotoxicity call (relative viability < 0.9); details: 10 µM
S. aureus RN4220 = assay: growth inhibition call (relative growth <= 0.2); details: 50 µM

Row | Structure (SMILES) | cytotoxicity call (HSkMC) | cytotoxicity call (HepG2) | growth inhibition call (S. aureus RN4220)
1 | Cc1ccc(S(=O)(=O)Nc2ccc3c(c2)C(=O)N([C@@H](C)CO)C[C@H](C)[C@H](CN(C)C(=O)Nc2ccccc2)OCCCC[C@@H](C)O3)cc1 | inactive | inactive | inactive
2 | Cc1ccc(S(=O)(=O)N(C)C[C@H]2Oc3ncc(-c4ccncc4)cc3C(=O)N([C@@H](C)CO)C[C@@H]2C)cc1 | inactive | inactive | inactive
3 | C(=C\c1ccncc1)/c1ccncc1 | inactive | inactive | inactive
4 | Cc1noc(C)c1NC(=O)Nc1ccc2c(c1)C(=O)N([C@H](C)CO)C[C@H](C)[C@H](CN(C)C(=O)Nc1ccc(C(F)(F)F)cc1)OCCCC[C@@H](C)O2 | inactive | inactive | inactive
5 | CC(C)NC(=O)N(C)C[C@@H]1Oc2c(NS(=O)(=O)c3cn(C)cn3)cccc2C(=O)N([C@H](C)CO)C[C@@H]1C | inactive | inactive | inactive
6 | C[C@H](CO)N1C[C@H](C)[C@H](CN(C)S(=O)(=O)c2cccs2)Oc2ccc(NC(=O)Cc3ccccc3)cc2CC1=O | inactive | inactive | inactive
7 | O=C(C[C@@H]1C=C[C@@H](NC(=O)CN2CCOCC2)[C@H](CO)O1)NCCc1ccncc1 | inactive | inactive | inactive
8 | CCNC(=O)[C@H]1[C@H](CO)[C@H]2Cn3c(ccc(-c4ccc(OC)cc4)c3=O)[C@@H]1N2S(C)(=O)=O | inactive | inactive | inactive
9 | C[C@@H]1CN([C@H](C)CO)C(=O)c2cc(NC(=O)Nc3ccc(F)cc3)ccc2O[C@@H](C)CCCCO[C@H]1CN(C)C(=O)Nc1ccccc1 | inactive | inactive | inactive
10 | C[C@@H]1CN([C@H](C)CO)C(=O)c2ccccc2-c2ccccc2CO[C@H]1CN(C)C(=O)Nc1cccc(Cl)c1Cl | inactive | inactive | inactive
11 | COC(=O)c1c(C)cc(OC(=O)c2c(C)cc(O)c(C=O)c2O)c(C)c1O | inactive | inactive | inactive
12 | C=CC[C@H](CC(=O)N(CCO)Cc1ccccc1)C(=O)N[C@H](COC(=O)[C@@H](CC=C)CC(=O)OC(C)(C)C)Cc1c[nH]c2ccccc12 | inactive | inactive | inactive
13 | C[C@@H]1CN([C@H](C)CO)C(=O)c2cc(NC(=O)Nc3cccc4ccccc34)ccc2O[C@@H]1CN(C)C(=O)Nc1ccc(F)cc1 | inactive | inactive | inactive
14 | COc1ccc(S(=O)(=O)N(C)C[C@@H]2OCCCC[C@H](C)Oc3ccc(NC(=O)C4CCCCC4)cc3C(=O)N([C@@H](C)CO)C[C@@H]2C)cc1 | inactive | inactive | inactive
15 | C[C@@H]1CN([C@H](C)CO)S(=O)(=O)c2ccc(-c3ccccc3F)cc2O[C@@H]1CN(C)S(C)(=O)=O | inactive | inactive | inactive
16 | Cl.O=c1n(CCCN2CCN(c3cccc(Cl)c3)CC2)nc2ccccn12 | inactive | inactive | inactive
17 | CNCCc1ccccn1 | inactive | inactive | inactive
18 | CN(C)c1ccc([C@@H](CN)N2CCc3ccccc3C2)cc1 | inactive | inactive | inactive
19 | CC(C)c1ccc(/C=C/C(=O)Nc2nc3ccccc3s2)cc1 | inactive | inactive | inactive
20 | OC[C@H]1O[C@@H](n2cnc3c(N[C@H]4CCC[C@@H]4O)ncnc32)[C@H](O)[C@@H]1O | inactive | inactive | inactive
21 | CO[C@H]1CN(C)C(=O)c2ccc(NC(=O)C3CC3)cc2OC[C@@H](C)N(C(=O)CN2CCOCC2)C[C@@H]1C | inactive | inactive | inactive
22 | C[C@@H]1CN([C@@H](C)CO)C(=O)c2cc(C#CC3CCCC3)cnc2O[C@H]1CN(C)S(=O)(=O)c1cccc(F)c1 | inactive | active | inactive
23 | C[C@H]1CN([C@@H](C)CO)C(=O)c2cc(NS(C)(=O)=O)ccc2O[C@H]1CN(C)C(=O)Nc1ccc(C(F)(F)F)cc1 | inactive | active | inactive
24 | C[C@@H]1CN([C@@H](C)CO)C(=O)c2cc(NC(=O)Nc3cccc4ccccc34)ccc2O[C@@H]1CN(C)Cc1ccc2c(c1)OCO2 | inactive | active | inactive
25 | COCC#Cc1cnc2c(c1)C(=O)N([C@H](C)CO)C[C@H](C)[C@@H](CN(C)C(=O)Nc1cc(F)ccc1F)O2 | inactive | inactive | inactive
26 | CO[C@@H]1[C@@H](O[C@@H]2O[C@H](C)[C@@H](O[C@H]3C[C@@](C)(O)[C@@H](O)[C@H](C)O3)[C@H](N(C)C)[C@H]2O)[C@@H](CC=O)C[C@@H](C)[C@@H](O[C@H]2CC[C@H](N(C)C)[C@@H](C)O2)/C=C/C=C/CC(C)OC(=O)C[C@H]1OC(C)=O (stereo not given in full) | inactive | inactive | inactive
27 | C[C@@H]1CN([C@@H](C)CO)C(=O)c2cc(NC(=O)C3CCCCC3)ccc2O[C@@H]1CN(C)C(=O)Nc1ccc(C(F)(F)F)cc1 | inactive | inactive | inactive
28 | O=C(CN1CCOCC1)NCC[C@H]1CC[C@H](NS(=O)(=O)c2ccc(F)cc2)[C@H](CO)O1 | inactive | inactive | inactive

Row | Structure (SMILES) | cytotoxicity call (HSkMC) | cytotoxicity call (HepG2) | growth inhibition call (S. aureus RN4220)
29 | CCOC(=O)CCCCCC(=O)Nc1ccc2c(c1)C(=O)N([C@@H](C)CO)C[C@H](C)[C@H](CN(C)C(=O)c1ccccc1)OCCCC[C@H](C)O2 | inactive | inactive | inactive
30 | C[C@H]1CN([C@@H](C)CO)C(=O)c2cc(-c3ccc(C(=O)N(C)C)cc3)cnc2O[C@H]1CN(C)C(=O)c1cccnc1 | inactive | inactive | inactive
31 | C[C@@H]1CCCCO[C@@H](CN(C)Cc2ccncc2)[C@@H](C)CN([C@H](C)CO)C(=O)c2cc(NC(=O)Nc3ccc(F)cc3)ccc2O1 | inactive | inactive | inactive
32 | CCCC(=O)Nc1ccc2c(c1)C(=O)N(C)C[C@H](OC)[C@@H](C)CN(S(=O)(=O)c1cn(C)cn1)[C@@H](C)CO2 | inactive | inactive | inactive
33 | C[C@@H]1CN([C@@H](C)CO)C(=O)c2cc(NS(C)(=O)=O)ccc2O[C@H]1CN(C)Cc1ccc(C(=O)Nc2ccccc2N)cc1 | inactive | inactive | inactive
34 | CC(C)NC(=O)N(C)C[C@H]1Oc2c(NS(=O)(=O)c3ccc(Cl)cc3)cccc2C(=O)N([C@@H](C)CO)C[C@@H]1C | inactive | inactive | inactive
35 | COC(=O)c1c2oc(c1C(=O)OC)C(=O)N[C@@H](Cc1ccccc1)Cn1cc(nn1)CNC(=O)[C@H](Cc1ccccc1)NC(=O)N[C@@H](COC(=O)NCCCCCC(=O)NO)CC2 | inactive | inactive | inactive
36 | CN1CCN(C(=O)C[C@H]2CC[C@H]3[C@@H](COC[C@@H](O)CN3CC3CCCC3)O2)CC1 | inactive | inactive | inactive
37 | COc1ccc2c3c(n(c2c1)C)[C@@H](CO)N(C[C@]13CCN(CC1)C(=O)Nc1cccc(c1)F)S(=O)(=O)C | inactive | inactive | inactive
38 | COCC#Cc1ccc2c(c1)O[C@H](CN(C)S(=O)(=O)c1cccc(F)c1)[C@@H](C)CN([C@@H](C)CO)S2(=O)=O | inactive | inactive | inactive
39 | Cc1noc(C)c1NC(=O)Nc1cccc2c1O[C@@H](CN(C)Cc1ccc(C(=O)Nc3ccccc3N)cc1)[C@@H](C)CN([C@@H](C)CO)C2=O | inactive | inactive | inactive
40 | Cc1ccc(S(=O)(=O)Nc2ccc3c(c2)C(=O)N([C@H](C)CO)C[C@H](C)[C@@H](CN(C)C(=O)Nc2ccc(F)cc2)OCCCC[C@@H](C)O3)cc1 | inactive | inactive | inactive
41 | COc1ccc(S(=O)(=O)N2C[C@H](O)COC[C@H]3O[C@H](CC(=O)NCCCN(C)C)CC[C@@H]32)cc1 | inactive | inactive | inactive
42 | COc1ccc(CN(C)C[C@H]2Oc3ccc(NC(=O)CCN4CCOCC4)cc3C(=O)N([C@@H](C)CO)C[C@@H]2C)cc1 | inactive | inactive | inactive
43 | CCCCCN(C)CCC(O)(P(=O)([O-])O)P(=O)(O)O.O.[Na+] | inactive | inactive | inactive
44 | Nc1ccc(-n2nn[nH]c2=S)cc1 | inactive | inactive | inactive
45 | C[C@H](CO)N1C[C@H](C)[C@@H](CN(C)CC2CCCCC2)Oc2ccc(NS(=O)(=O)c3cn(C)cn3)cc2CC1=O | inactive | inactive | inactive
46 | C[C@@H]1CN([C@H](C)CO)C(=O)c2cc(NS(=O)(=O)c3ccccc3)ccc2O[C@@H](C)CCCCO[C@@H]1CN(C)C(=O)NC1CCCCC1 | inactive | inactive | inactive
47 | C[C@H](CO)N1C[C@H](C)[C@H](CN(C)CC2CCCCC2)OCCCC[C@H](C)Oc2ccc(NC(=O)c3ccccc3)cc2C1=O | inactive | inactive | inactive
48 | CC(C)CC#Cc1ccc2c(c1)O[C@@H](CN(C)C(=O)Cc1ccccn1)[C@H](C)CN([C@H](C)CO)S2(=O)=O | inactive | inactive | inactive
49 | O=C(C[C@H]1C=C[C@H](NS(=O)(=O)c2ccccc2)[C@H](CO)O1)NCc1ccncn1 | inactive | inactive | inactive
50 | C[C@@H]1CN([C@H](C)CO)C(=O)c2cccc(NC(=O)Nc3cccc4ccccc34)c2O[C@@H]1CN(C)Cc1ccc(Cl)c(Cl)c1 | inactive | inactive | inactive
51 | CCCCOc1ccc([C@@H]2c3c(oc4ccc(Br)cc4c3=O)C(=O)N2CCCN2CCOCC2)cc1 | inactive | inactive | inactive
52 | C[C@H](CO)N1C[C@H](C)[C@H](CN(C)C(=O)Cc2ccccc2)Oc2cc(C#CC3(O)CCCC3)ccc2S1(=O)=O | inactive | inactive | inactive
53 | C[C@@H]1CN([C@@H](C)CO)C(=O)c2cc(NS(C)(=O)=O)ccc2O[C@@H]1CN(C)S(=O)(=O)c1ccc(F)cc1 | inactive | inactive | inactive
54 | CS(=O)(=O)N1C[C@@H](O)COC[C@@H]2O[C@H](CC(=O)NCc3ccccc3)CC[C@H]21 | inactive | inactive | inactive
55 | c1n[nH]cc1-c1cn[nH]c1 | inactive | inactive | inactive
